This note sets out measurements from publication PMC4336329 (PLoS ONE, 2015).

In all, about 310,000 compounds went through this assay and about 2,200 (0.71%) showed an effect of 50% or more. Effects have a minus sign here. The list shows a part of the results.

Chain of human ether-à-go-go-related gene (hERG) potassium channel (Q12809 whole entry, looked up): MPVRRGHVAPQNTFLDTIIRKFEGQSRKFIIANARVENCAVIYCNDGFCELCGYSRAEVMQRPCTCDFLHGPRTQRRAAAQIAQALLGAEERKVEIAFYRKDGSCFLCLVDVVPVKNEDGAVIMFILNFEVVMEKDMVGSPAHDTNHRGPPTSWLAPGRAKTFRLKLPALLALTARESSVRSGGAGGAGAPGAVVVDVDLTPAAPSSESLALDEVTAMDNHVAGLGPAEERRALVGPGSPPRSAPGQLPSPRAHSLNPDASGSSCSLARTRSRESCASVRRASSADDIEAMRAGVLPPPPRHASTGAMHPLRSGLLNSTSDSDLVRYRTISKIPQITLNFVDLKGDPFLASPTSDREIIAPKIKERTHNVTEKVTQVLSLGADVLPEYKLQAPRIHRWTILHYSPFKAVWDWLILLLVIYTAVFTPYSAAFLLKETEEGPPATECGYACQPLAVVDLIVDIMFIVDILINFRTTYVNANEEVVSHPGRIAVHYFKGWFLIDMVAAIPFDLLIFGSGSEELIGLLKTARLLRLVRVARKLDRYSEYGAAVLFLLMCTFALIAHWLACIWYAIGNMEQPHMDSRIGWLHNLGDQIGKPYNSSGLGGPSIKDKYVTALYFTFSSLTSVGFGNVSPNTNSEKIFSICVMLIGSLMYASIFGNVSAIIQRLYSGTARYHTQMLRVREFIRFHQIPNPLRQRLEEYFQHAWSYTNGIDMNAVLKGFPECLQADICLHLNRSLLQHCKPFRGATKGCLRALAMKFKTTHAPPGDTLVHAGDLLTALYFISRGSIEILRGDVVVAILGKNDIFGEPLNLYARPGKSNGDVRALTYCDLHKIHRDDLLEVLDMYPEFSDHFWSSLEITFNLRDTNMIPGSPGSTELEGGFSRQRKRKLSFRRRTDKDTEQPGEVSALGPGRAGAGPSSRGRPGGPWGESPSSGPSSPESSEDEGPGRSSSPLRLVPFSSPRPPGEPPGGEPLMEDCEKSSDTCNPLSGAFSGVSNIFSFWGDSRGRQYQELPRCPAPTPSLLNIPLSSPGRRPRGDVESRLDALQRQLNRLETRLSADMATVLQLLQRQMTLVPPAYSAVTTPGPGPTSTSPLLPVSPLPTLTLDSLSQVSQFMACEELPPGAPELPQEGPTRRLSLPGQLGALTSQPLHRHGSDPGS

The test has as its target human ether-à-go-go-related gene (hERG) potassium channel (human, UniProt Q12809). In words: primary screen, population patch clamp on CHO cells stably expressing hERG.
As for `CC(C)(C)n1nc(Cc2cccc3ccccc23)c(C#N)c1N`, the “hERG current change (%, negative = inhibition) at 1uM” value was 10.6%.
Then `O=C(NCCCN1CCCC1=O)c1ccc(OC(F)(F)F)cc1`, with 12.5%.
Regarding `CCCC[C@H]1COCCS(=O)(=O)N1Cc1cccc([N+](=O)[O-])c1`, the “hERG current change (%, negative = inhibition) at 1uM” value is reported as 0.874%.
As for `O=C(c1ccc(OC2CCN(C/C=C/c3ccc(F)cc3)CC2)cc1)N1CCCCC1`, the figure is -19.2%.
Take `Cc1ccc(C2=[N+]([O-])C3(CCCCC/C3=N\O)N(O)C2(C)C)o1` (centres unmarked): the “hERG current change (%, negative = inhibition) at 1uM” value is on record as -1.74%.
As to `O=C(Nc1nccs1)c1ccc(COc2ccc(Cl)cc2)o1`, the “hERG current change (%, negative = inhibition) at 1uM” value turned out to be 6.13%.
As for `CCOC(=O)c1ccc(COC(=O)c2ccc(-c3nnc(-c4ccccc4)o3)cc2)o1`, the figure is 1.79%.
`CN(C)C1(CNC(=O)C2CCC(=O)N(Cc3ccc(Cl)cc3)C2)CCCCC1` (centres unmarked): the “hERG current change (%, negative = inhibition) at 1uM” value amounted to 9.38%.
Consider `CCOc1ccccc1N1CCN(C(=O)c2ccc3[nH]c4c(c3c2)CCCC4)CC1`, for which the “hERG current change (%, negative = inhibition) at 1uM” value turned out to be 16.6%.
`COc1ccccc1-n1c(C)cc(SC)c(C(C)=O)c1=S`: the “hERG current change (%, negative = inhibition) at 1uM” value is 1.01%.
For the compound `O=c1[nH]cc(S(=O)(=O)Nc2ccc3c(c2)OCO3)c(=O)[nH]1`, the “hERG current change (%, negative = inhibition) at 1uM” value was -3.64%.
Consider `COc1cc(OC)c(C(=O)OCC(=O)NC2CCCC2)cc1OC`, for which the “hERG current change (%, negative = inhibition) at 1uM” value turned out to be 16.7%.
For `CC(C)CNC(=S)N(CCO)Cc1cc2cc3c(cc2[nH]c1=O)OCO3`, the “hERG current change (%, negative = inhibition) at 1uM” value was 4.31%.
Then `CCN1CCN(Cc2ccc(NC(=O)c3ccc(C)c(NC(=O)c4csc(-c5ccncc5)n4)c3)cc2C(F)(F)F)CC1`, with 9.53%; and `CCS(=O)(=O)N1Cc2ccccc2CC1C(=O)Nc1nc2c(C)cccc2s1` (centres unmarked), with 16%.
Then `Cc1ccc(-c2csc(NC(=O)CN3CCOCC3)n2)cc1C`, with 13.6%; and `C=CCNC(=S)NN=C1CCCCCCC1`, with 9.69%.
Turning to `O=C(CS(=O)CC(=O)N(CC(=O)NC1CCCC1)c1ccc2c(c1)OCCO2)Nc1ccc(F)cc1` (centres unmarked), the “hERG current change (%, negative = inhibition) at 1uM” value is on record as 10.1%.
Then `CC(=O)N1CCCc2cc(S(=O)(=O)N3CCCC(C(=O)Nc4ccc(C)cc4C)C3)ccc21` (centres unmarked), with 14.2%; and `COC(=O)C1=C(C)N(Cc2ccccc2)C(=O)N[C@H]1c1cccc(C(F)(F)F)c1`, with 8.44%; and `Cc1[nH]c(C)c(S(=O)(=O)N2c3ccccc3CC2C)c1C(=O)N1CCCCC1` (centres unmarked), with 8.94%.
Then `CCOc1ccc(-c2cc(CCCC(=O)NCc3ccc(C)cc3)no2)cc1`, with 13.1%; and `COC(=O)c1ccc(NC(=O)CCn2cccc2)cc1`, with 20.3%; and `O=C(COC(=O)c1cc([N+](=O)[O-])ccc1Cl)NCCc1ccccc1`, with 4.26%.
Then `N#Cc1c(-c2ccc(Cl)cc2)ccnc1N1CCOCC1`, with 3.35%; and `Cc1ccc(N2C(=O)CC(Sc3ccccc3C(=O)O)C2=O)cc1` (centres unmarked), with 9.14%; and `Cc1ccc(C(=O)NCCc2n[nH]c(=S)n2C)cc1`, with 10.6%.
For the compound `COc1ccc(OCC(=O)Nc2ccc(N3CCOCC3)cc2)c([N+](=O)[O-])c1`, the “hERG current change (%, negative = inhibition) at 1uM” value is recorded as 7.71%.
Then `CC1=CC(C2CC(=O)N(c3ccc(C)cc3)C2=O)CC2C(=O)N(c3ccc(C)cc3)C(=O)C12` (centres unmarked), with 11.6%; and `O=C(Nc1ccc(Cl)cc1)O/N=C(\c1ccccc1)c1ccccn1`, with 0.811%.
As to `CCOC(=O)c1sc2nc(C)c3c(c2c1N)CC(C)(C)OC3`, the “hERG current change (%, negative = inhibition) at 1uM” value amounted to 12.9%.
For the compound `Cc1nc(-c2ccccc2)sc1C(=O)Nc1ccccc1F`, the “hERG current change (%, negative = inhibition) at 1uM” value amounted to 13.6%.
As for `CCC1(CC)NC(=O)N(CC(=O)OCc2nc3cc(C(=O)OC)ccc3c(=O)[nH]2)C1=O`, the figure is 9.38%; as for `COc1ccc(NS(=O)(=O)c2cccc(C(=O)N3CCN(c4ccccc4O)CC3)c2)cc1`, -8.74%; as for `CC(=O)c1ccc(OC(=O)CCc2ccccc2)cc1`, 14%.
As for `CC(=O)Nc1ccc(C(=O)OCCc2ccccc2)cc1`, the figure is 12%; as for `Cn1nc(C(=O)NNC(=O)CCOc2ccc(C(C)(C)C)cc2)c2ccccc2c1=O`, -8.16%.
As for `NC(=O)Cn1c(-c2nonc2N)nc2ccccc21`, the figure is 10.2%; as for `CCOc1ccc(Nc2c3ccccc3nc3ccccc23)cc1`, 2.31%.
As for `O=C(CSc1nnc(Nc2ccccc2)s1)NC1CC1`, the “hERG current change (%, negative = inhibition) at 1uM” value is 1.19%.
On to `Cc1cc(C(=O)NCc2ccc(C(=O)O)o2)c(C)o1`, for which the “hERG current change (%, negative = inhibition) at 1uM” value was 7.76%.
Consider `O=C(Nc1ccc2nc(-c3ccco3)[nH]c2c1)c1ccco1`, for which the “hERG current change (%, negative = inhibition) at 1uM” value is 5.2%.
As to `Cc1c(OCC(=O)NCCCN2CCCC2=O)ccc2c3c(c(=O)oc12)CCCC3`, the “hERG current change (%, negative = inhibition) at 1uM” value is 5.38%.
Then `NC(=O)c1cc2ccccc2o/c1=N/NC(=O)c1ccccc1`, with 5.3%.
For the compound `Cc1cc(C)c2[nH]c(=O)c(C(c3nnnn3Cc3ccc4c(c3)OCO4)N3CCCC3)cc2c1` (centres unmarked), the “hERG current change (%, negative = inhibition) at 1uM” value is 5.5%.
As for `COC(=O)c1ccc(NC(=O)c2ccc3c(c2)NC(=O)C2CCCN32)cc1` (centres unmarked), the figure is 3.51%; as for `O=C(N/N=C/c1c[nH]c2ccc(Br)cc12)c1ccccn1`, 14.2%; as for `COc1cccc(OC)c1OCCCSc1nc(C)cc(=O)[nH]1`, -2.38%.
As for `Cc1ccc(N(CC(=O)NC2CCCCC2C)S(=O)(=O)c2c(C)nn(C)c2C)cc1` (centres unmarked), the “hERG current change (%, negative = inhibition) at 1uM” value is recorded as 10.7%.
`O=S(=O)(Nc1ccc(-n2cnnn2)cc1)c1ccccc1F`: the “hERG current change (%, negative = inhibition) at 1uM” value was 11.6%.
As for `CCN1CCN(CCCCSc2ccccc2)CC1.O=C(O)C(=O)O`, the figure is 5%; as for `NC(=O)CSc1nnc(NC(=O)C2CC(=O)N(c3ccc(F)cc3)C2)s1` (centres unmarked), 17.2%.
As for `COc1ccc(NC(=O)c2ccc(C)o2)c([N+](=O)[O-])c1`, the “hERG current change (%, negative = inhibition) at 1uM” value is 3.68%.
On to `COCCCN1C(=O)C(=O)/C(=C(/O)c2ccc(OC(C)C)cc2)C1c1ccncc1` (centres unmarked), for which the “hERG current change (%, negative = inhibition) at 1uM” value was 17.4%.
Regarding `O=C(/C=C/c1cccc2ccccc12)NCCC1=CCCCC1`, the “hERG current change (%, negative = inhibition) at 1uM” value was 10.3%.
Regarding `O=C(Nc1ccccc1C(=O)O)c1ccc(Br)c(S(=O)(=O)NCc2ccccc2)c1`, the “hERG current change (%, negative = inhibition) at 1uM” value is given as 13.7%.
